In PubChem BioAssay AID1508623 (National Center for Advancing Translational Sciences (NCATS), 2021):
Among all 48,000 compounds or so, about 450 (0.94%) were called active. Inconclusive results (about 19%) are left out. Calls come from the whole dose curve; as a rule, active = well fitted inhibition curve with a large enough effect; inconclusive = small, poorly fitted or top-dose-only effect; inactive = no such curve, though single readings can be large or run the other way. The list shows a part of the results.

Experiment: Primary qHTS for Identification of Small Molecule Inhibitors of Huntingtin Promoter Activity; note: nearly all actives have a fitted effect of over 50% in size
Conditions: HEK293 HTT promoter firefly luciferase reporter (activity 0% = vehicle and -100% = no light), 24 h; series mostly up to 57.5 µM; activity change, negative = inhibition: at the top concentration
How it was run: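 Firefly luciferase readout (Dual-Glo, 10 min RT) after 24 h, 37 °C compound exposure (final up to 57.5 uM) of HEK293 reporter cells cultured 24 h beforehand; PTC124 at 50 uM final as control inhibitor; activity scaled vehicle 0%, zero RLU -100%.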

Activity change, negative = inhibition, inactive:
CCOc1ccc(-c2nonc2NC(=O)COc2c(C)cc(C)cc2C)cc1OCC -3.29%
CCCCCn1c(C(C)NC(=O)c2ccccc2)nc2ccccc21 (stereo not given) -15.8%
COc1ccc2c(c1)c1c(c(=O)n(Cc3ccccc3)c(=O)n1CC(=O)NCc1ccccc1Cl)n2C -3.69%
CCOc1cc(CNC(=O)C2COc3ccccc3C2)cc(OCC)c1OCC (stereo not given) -22.8%
COc1ccc(CNC(=O)CCn2cccn2)cc1 -6.81%
COc1ccc(CCn2cc3c(c2-c2ccc(Br)cc2)c(=O)n(C)c(=O)n3C)cc1OC -7.87%
Cc1ccc(C(C)C)c(OCC(=O)NCC2(N(C)C)CCCCC2)c1 -20.6%
Cc1ccccc1C(=O)n1nc(-c2ccco2)nc1NCc1ccc(Cl)cc1 3.56%
COc1ccc(OC(=O)N(CC(=O)O)Cc2ccc(OCCc3nc(-c4ccccc4)oc3C)cc2)cc1 -5.6%
COc1ccc(-c2nc(C)c(CCNC(=O)C(=O)Nc3ccccc3OC)s2)cc1 -3.35%
Cc1ccc(-c2nnc(SCc3ccccc3C)o2)cc1 62.4%
CCc1ccc(C(=O)c2cn(CC(=O)Nc3ccc4c(c3)OCO4)c3cc(OC)c(OC)cc3c2=O)cc1 -13.9%
O=C(COc1ccc(Cl)cc1)Nc1ccc(-c2nc3ccccc3s2)c(O)c1 -23.8%
COc1cc(-c2cc(OC)c3c(C)oc(C)c3c(=O)c2)ccc1OC(=O)c1ccccc1Cl -16.1%
COc1cc(Cl)c(NC(=O)CCS(=O)(=O)c2cc3c(cc2Cl)NC(=O)CO3)c(OC)c1 20.6%
Cc1cc(C)c2c(=O)cc(CSCC(=O)Nc3ccccc3Cl)[nH]c2c1 -2.52%
Cc1ccc(-c2cc3ncc4c(n3n2)-c2cc(C)ccc2OC4)cc1 -13.1%
Cc1cccc(Oc2nc3c(C)cccn3c(=O)c2/C=C(\C#N)c2nc3ccccc3[nH]2)c1 -19.3%
Cc1ccc2nc(N3CCN(c4cccc(Cl)c4)CC3)c(-n3nc(C)cc3C)nc2c1 -6.24%
CCOC(=O)C1=C(CN2CCC(C)CC2)NC(=O)NC1c1ccc(F)cc1 (stereo not given) -5.57%
Cc1ccc(N2C(=O)CSC23C(=O)N(CC(=O)NCc2ccccc2)c2ccccc23)cc1C (stereo not given) -16.2%
Cc1cccc(C)c1OCC(=O)NCC1(N(C)C)CCCCC1 -26.1%
CNC(=O)c1c(NC(=O)c2ccc(S(=O)(=O)N3CCC(C)CC3)cc2)sc2c1CCC2 -0.907%
COc1ccccc1CNC(=O)C1CCC(CNS(=O)(=O)c2ccc3c(c2)CCCC(=O)N3)CC1 (stereo not given) -15.6%
COc1ccc(CNC(=O)c2ccc(N3CCCC3)c(NC(=O)NCc3ccc(F)cc3)c2)cc1 -28.4%
CCN(CC)CCNC(=O)c1ccc(Cn2c(SCc3ccccc3)nc3cccnc32)cc1 38.5%
Cc1ccc2c(Sc3ccc(Cl)cc3)c(C(=O)N3CCC(C)CC3)[nH]c2c1 -27.6%
COc1ccc(CNS(=O)(=O)c2cnc(N)nc2)c(OC)c1 0.185%
CS(=O)(=O)c1ccc(-c2nnc(NC(=O)c3ccc4c(c3)OCCO4)o2)cc1 -5.72%
CCC1CN(C(=O)N2CCC(C(=O)NCCN(CC)CC)CC2)c2cc(C)ccc2O1 (stereo not given) 1.14%
CC(C)Oc1ccc(CNC(=O)CCCN2C(=O)c3cccnc3Oc3ccc(Cl)cc32)cc1 -15.6%
CCN(C(=O)c1cc2c(s1)-c1c(C)cccc1OC2)c1ccccc1F -25.1%
COc1ccc(CC(=O)N2CCc3cc(OC)c(OC)cc3C2COc2ccc(OC)cc2)cc1 (stereo not given) -29.7%
CCOC(=O)c1scc(-c2ccccc2)c1S(=O)(=O)Nc1cc(OC)cc(OC)c1 -1.38%
O=C(Cn1cc(SCc2c(F)cccc2Cl)c2ccccc21)N1CCCCCC1 15.1%
COc1ccc(-n2nc(C(=O)N(C)c3cc(C)ccc3C)c3c4ccccc4n(C)c3c2=O)cc1Cl 31.3%
COc1ccc(-c2c(-c3ccc(O)cc3O)n[nH]c2C)cc1 -28.2% [at 116 µM]
Cc1c(Cl)cccc1NC(=O)c1cnc2sc(N3CCOCC3)nn2c1=O -11.5%
CCN(c1ccccc1)S(=O)(=O)c1ccc(NC(=O)c2cc(=O)c3cc(C)cc(C)c3o2)cc1 4.48%
CCC(=O)N1c2ccccc2CC1C(=O)NCCc1ccccc1C (stereo not given) -24.2%
O=C(CSc1cn(CC(=O)N2CCOCC2)c2ccccc12)Nc1ccccc1F -4.33%
O=C(Nc1ccc2nn(-c3ccccc3)nc2c1)c1cc2ccccc2o1 10.9%
COc1ccc(OC)c(CCNC(=O)CCCn2c(=O)c3cccn3c3ccccc32)c1 -3.99%
Cc1cccc(C)c1OCC(C)N (stereo not given) 10.4%
O=C(c1ccc2c(c1)N(Cc1ccc(Cl)cc1)C(=O)c1ccccc1S2=O)N1CCOCC1 (stereo not given) -25%
Cc1cc(C)c2c(CC(=O)N3CCN(c4cccc(Cl)c4)CC3)coc2c1 -13.5%
CC1CCc2nc3ncn(Cc4ccccc4C#N)c(=O)c3cc2C1 (stereo not given) 9.94%
COc1ccc(C(CNC(=O)c2oc3ccc(Cl)cc3c2C)N2CCCCC2)cc1 (stereo not given) -10.5%
CCCC(=O)N(c1ccc2oc3c(c2c1)CCCC3)S(=O)(=O)c1cc(C)ccc1C -12.4%
O=C1CC(c2nc3ccccc3[nH]2)CN1c1cccc(Cl)c1 (stereo not given) -19.2%
COc1cccc(CSc2nc3cc(C(=O)NC4CCCC4)ccc3c(=O)n2Cc2ccccc2)c1 1.21%
O=C(CSc1nc2ccccc2n1Cc1ccccc1)N1CCN(c2ccc(F)cc2)CC1 -27.8%
COc1ccc(-n2cc(C(=O)NCc3ccccc3)c3ccccc3c2=O)cc1 -12.9%
Cc1cc(Cl)ccc1NC(=O)c1cc(S(=O)(=O)N2CCOCC2)cn1C -30.8%
CSc1ccc(CCNC(=O)C2CCN(c3nc4ccccc4nc3C(F)(F)F)CC2)cc1 -9.01%
O=C(Cn1c(=O)n(Cc2ccc3c(c2)OCO3)c(=O)c2oc3ccccc3c21)Nc1ccccc1 -10.7%
Cc1ccccc1CNC(=O)C1CCN(c2nnc(C)c3c(C)n(-c4ccccc4)nc23)CC1 4.85%
CCc1ccc(-c2nc3ccc(Br)cc3c(C(=O)O)c2C)s1 -29.1%
COC(=O)c1ccc(NC(=O)c2c(NCc3ccc(C)o3)sc3c2CCCC3)cc1 -29.9%
CCc1nnc(NC(=O)c2cc(=O)c3cc(C)c(C)cc3o2)s1 -5.56%
COc1cc(-c2noc(-c3cc4cc(F)ccc4oc3=O)n2)cc(OC)c1OC 0.986%
CN1C(=O)C2(c3ccccc31)N(c1ccccc1)C(=O)CS2(=O)=O (stereo not given) -16.3%
Cc1cc(C)c2oc(C(=O)Nc3sc4c(c3C(=O)NCc3ccco3)CCC4)cc(=O)c2c1 16.5%
C[C@@H]1CCN(C(=O)[C@H](CCCN=C(N)N)NS(=O)(=O)c2cccc3c2NC[C@H](C)C3)[C@@H](C(=O)O)C1 -2.04%
COc1ccc(-c2nc3scc(CCNS(=O)(=O)c4c(C)noc4C)n3n2)cc1 -8.92%
Cc1ccc(NC(=O)/C=C/c2ccccc2)c(Br)c1 60.3%
Cc1ccc(C)c(CN2C(=O)c3ccccc3S(=O)(=O)c3ccc(C(=O)Nc4ccccc4C(F)(F)F)cc32)c1 -19%
CN1CCN(C(=O)C(=O)Nc2c3c(nn2-c2ccc(F)cc2)CSC3)CC1 -11%
CC(=O)O[C@@]12CO[C@H]1C[C@H](O)[C@@]1(C)C(=O)[C@H](O)C3=C(C)[C@@H](OC(=O)C(O)[C@@H](NC(=O)OC(C)(C)C)c4ccccc4)C[C@@](O)([C@@H](OC(=O)c4ccccc4)[C@@H]21)C3(C)C (stereo not given in full) -13.3%
Cc1ccc(S(=O)(=O)NCCc2nnc3ccc(SCc4ccccc4C)nn23)cc1 -21.9%
COc1ccc(N2CCN(C(=O)Cn3cnc4nc5c(cc4c3=O)CCCC5)CC2)cc1 -14.8%
CCOC(=O)c1cccc(NC(=O)c2cc(CN3CCCC3)on2)c1 14.4%
Cc1ccc(Cn2cccc2C2=NC(C)(C)CO2)cc1 -7.09%
COc1ccccc1OC(C)C(=O)NCC1(N2CCOCC2)CCCCC1 (stereo not given) -14.2%
CC1CCN(S(=O)(=O)c2ccc3c(c2)N(CC(=O)NC(C)C)C(=O)CS3)CC1 -10.2%
Cc1ccc(OC(=O)c2cc(-c3ccc4c(c3)OCCO4)on2)c(C)c1 9.83%
CCc1nn(CCCC(=O)NCc2ccccc2Br)c(=O)c2cc3occc3n12 -21%
COc1ccc(NC(=O)CCNS(=O)(=O)c2cccc3nonc23)cc1 -4.17%
Cc1ccc(OCC(=O)NCC2(N3CCN(C)CC3)CCCCC2)cc1C -7.89%
Cc1c(Cl)ccc2sc(N3CCN(C(=O)c4ccco4)CC3)nc12 20.8%
Cc1ccc(CCNC(=O)CN(c2ccc(C)cc2)S(=O)(=O)c2c(C)noc2C)cc1 -24.7%
COc1ccccc1CNc1ccc(-c2nc(C(C)C)no2)cc1[N+](=O)[O-] -10.2%
Cc1ccc(C)c(NC(=O)Cn2cc(C(=O)c3ccncc3)c(=O)c3cc(F)ccc32)c1 -17.4%
COc1ccc(NC(=O)Cn2cnc3sc(C)c(S(=O)(=O)N4CCN(C)CC4)c3c2=O)cc1OC -4.54%
CN(C)c1ccc(CNc2nc(-c3ccco3)nn2S(=O)(=O)c2ccc3ccccc3c2)cc1 8.8%
O=C(CSc1nc2c(c(=O)[nH]1)CCC2)Nc1ccccc1F 0.973%
Cc1ccc(C(=O)Nc2ccc(Cl)c(-c3nc4ncccc4o3)c2)c(C)c1 44.5%
Cc1ccccc1-c1nc(CNC(=O)Nc2ccccc2)c(C)o1 -1.85%
CCOC(=O)C1CCN(C(c2ccccc2OC)c2c(O)cc(C)n(CCOC)c2=O)CC1 (stereo not given) -12.6%
COc1cccc(-c2nc(-c3ccc(-c4ccccc4)nc3OC)no2)c1 16.9%
O=C(Nc1ccc(F)cc1)[C@H](Cc1ccccc1)N1Cc2ccccc2C1=O -18.5%
CN(C(=O)C(Cl)Cl)c1ccc(OC(=O)c2ccco2)cc1 6.42%
Cn1nnnc1SCCCNCc1cccc(OCc2ccc(Cl)cc2)c1 -10.9%
CCc1cc(Nc2nccc(-c3c(-c4ccc(OC)c(C(=O)Nc5c(F)cccc5F)c4)nc4ccccn34)n2)c(OC)cc1N1CCC(N2CCN(S(C)(=O)=O)CC2)CC1 1.18%
CCOc1ccccc1NC(=O)C1CCN(S(=O)(=O)c2c(C)noc2/C=C/c2ccc(C)cc2)CC1 -7.95%
